Results on eight molecules are retold here after patent US20170174769A1 (Regeneron, published 2017).

Test [1] concerns the target T1, cell-surface human FGFR1c (amino acids 1-731 of NP_075594) with cell-surface human KLB on … (human, UniProt P11362 22-822). Briefly: cell-based or functional assay.
Test [2] deals with T1, cell-surface human FGFR1c (amino acids …). As to the kind of experiment: cell-based or functional assay. This is another data set of the same source.

Where two headings read alike, the source gives them in different places.

T1 sequence (P11362 22-822, chain 1 of 2): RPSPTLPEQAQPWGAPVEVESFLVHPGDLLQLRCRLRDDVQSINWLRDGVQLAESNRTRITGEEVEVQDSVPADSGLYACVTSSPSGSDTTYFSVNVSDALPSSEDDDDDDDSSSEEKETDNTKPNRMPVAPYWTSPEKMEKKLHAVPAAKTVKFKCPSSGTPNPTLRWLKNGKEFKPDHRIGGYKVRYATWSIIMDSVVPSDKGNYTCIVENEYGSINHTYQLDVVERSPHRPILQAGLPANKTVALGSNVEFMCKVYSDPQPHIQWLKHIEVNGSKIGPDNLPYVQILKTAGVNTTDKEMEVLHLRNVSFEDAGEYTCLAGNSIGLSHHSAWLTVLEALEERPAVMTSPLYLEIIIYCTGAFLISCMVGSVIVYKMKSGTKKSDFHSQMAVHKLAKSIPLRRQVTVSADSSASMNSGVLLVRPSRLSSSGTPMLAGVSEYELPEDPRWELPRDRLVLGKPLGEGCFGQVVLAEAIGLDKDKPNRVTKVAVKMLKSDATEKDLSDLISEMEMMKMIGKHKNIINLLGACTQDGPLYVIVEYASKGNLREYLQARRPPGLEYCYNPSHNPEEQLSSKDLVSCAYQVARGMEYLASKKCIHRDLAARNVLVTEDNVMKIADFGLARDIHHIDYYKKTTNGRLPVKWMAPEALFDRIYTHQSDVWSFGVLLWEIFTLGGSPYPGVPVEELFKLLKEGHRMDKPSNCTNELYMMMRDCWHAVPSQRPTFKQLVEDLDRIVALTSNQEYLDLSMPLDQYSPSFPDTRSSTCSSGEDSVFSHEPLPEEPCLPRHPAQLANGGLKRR
T1 sequence (chain, as listed by the source, chain 2 of 2): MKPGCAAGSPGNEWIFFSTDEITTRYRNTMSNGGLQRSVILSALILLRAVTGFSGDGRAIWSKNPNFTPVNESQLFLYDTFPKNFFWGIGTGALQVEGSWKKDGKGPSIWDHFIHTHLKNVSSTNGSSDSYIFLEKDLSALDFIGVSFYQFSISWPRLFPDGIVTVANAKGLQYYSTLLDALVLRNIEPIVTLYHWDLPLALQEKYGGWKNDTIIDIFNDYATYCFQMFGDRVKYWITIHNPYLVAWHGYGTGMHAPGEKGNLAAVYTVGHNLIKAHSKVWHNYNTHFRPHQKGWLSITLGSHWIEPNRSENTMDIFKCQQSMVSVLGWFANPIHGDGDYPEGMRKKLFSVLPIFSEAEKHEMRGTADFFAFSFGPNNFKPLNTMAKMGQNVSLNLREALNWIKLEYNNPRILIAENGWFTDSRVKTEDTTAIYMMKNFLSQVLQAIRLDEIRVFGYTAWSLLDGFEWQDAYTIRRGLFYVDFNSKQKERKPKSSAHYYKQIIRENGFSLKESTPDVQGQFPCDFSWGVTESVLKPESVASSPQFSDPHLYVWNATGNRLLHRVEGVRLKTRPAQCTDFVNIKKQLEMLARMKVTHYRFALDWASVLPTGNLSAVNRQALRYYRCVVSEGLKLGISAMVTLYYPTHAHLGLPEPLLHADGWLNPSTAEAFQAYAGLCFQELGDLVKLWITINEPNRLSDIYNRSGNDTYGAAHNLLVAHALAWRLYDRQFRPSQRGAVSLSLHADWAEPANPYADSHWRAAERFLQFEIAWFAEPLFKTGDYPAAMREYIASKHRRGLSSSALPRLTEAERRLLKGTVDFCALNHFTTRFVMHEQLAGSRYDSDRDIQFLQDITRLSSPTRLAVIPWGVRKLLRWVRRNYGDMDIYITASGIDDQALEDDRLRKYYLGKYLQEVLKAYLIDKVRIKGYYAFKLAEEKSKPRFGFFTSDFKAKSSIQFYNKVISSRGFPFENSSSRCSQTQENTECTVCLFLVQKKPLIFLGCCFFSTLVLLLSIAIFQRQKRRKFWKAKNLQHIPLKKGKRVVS

B1: Fusion 4 (Homodimer) (Fc fusion)
chain: HPIPDSSPGGGGSGGGGSGGGGSGGGGS[human IgG1 Fc not spelt out]GGGGSGGGGSGGGGSGGGGSPGLPPAPPEPPGILAPQPPDVGSSDPLSMVGPSQGRSPSYAS
Turning to B1, in test [1], the “% Activation” value stood at 1.3% and the “EC50, SRE-luc activation” value turned out to be 22 nM.

B2: scFv8870-IgG-scFv8092 Homodimer (bispecific antibody)
chain: EVQLVESGGGVVRPGGSLRLSCAASGFKFDVYGMSWVRQLPGKGLEWVSGISWTGGSSGYADSVKGRFTISRDNGKKSLYLQMNSLRAEDTALYYCTREEDYWGQGTLVTVSSGGGGSGGGGSGGGGS[about 100 residues not spelt out]LTFGGGTKVEIKGGGGSGGGGSGGGGS[human IgG4 Fc with S228P (EU numbers) not spelt out]GGGGSGGGGSGGGGSQVQLQESGPGLVKPSETLSLTCTVSGGSISSYYWSWIRQPPGKGLDWIGHIYYSGTTYYNPSLKSRVSISLDTSKNQFSLKLSSVTAADTAVYYCARHLRGYSSGREFDYWGQGTLVTVSSGGGGSGGGGSGGGGSDIQMTQSPSSLSASVGGRVSLTCRASQSIFSYLNWYQQKPGKAPKLLIYAASNLQSGVPSRFSGSGSGTDFTLTISSLQPEDFATYSCQQSYNIPYTFGQGTKLEIK
On to B2, for which, in test [1], the “% Activation” value stood at 5.3% and the “EC50, SRE-luc activation” value stood at 38 nM.

B3: Fusion 5 (Homodimer) (Fc fusion)
chain: HPIPDSSPLLQFGGQVRGGGGSGGGGSGGGGSGGGGS[human IgG1 Fc not spelt out]GGGGSGGGGSGGGGSGGGGSPGLPPAPPEPPGILAPQPPDVGSSDPLSMVGPSQGRSPSYAS
As for B3, in test [1], the “% Activation” value was determined as 1.4% and the “EC50, SRE-luc activation” value stood at 15 nM.

B4: scFv8900-IgG-scFv8092 Homodimer (bispecific antibody)
chain: QVQLVESGGGVVQPGRSLRLSCVASGFTFSSYGMHWVRQAPGKGLEWVAVISFDGSNKYYADSVKGRFTISRDNSKNTLYLQMNSLRPADTAVYYCAKDRSNYYYFGMDVWGQGTTVTVSSGGGGSGGGGSGGGGSDIVMTQTPLSLPVTPGEPASISCRSSQSLLDSDDGNTYLDWYLQKPGQSPQLLIYTLSYRASGVPDRFSGSGSGTDFTLKISRVEAEDVGVYYCMQRIEFPLTFGGGTKVEIKGGGGSGGGGSGGGGS[human IgG4 Fc with S228P (EU numbers) not spelt out]GGGGSGGGGSGGGGSQVQLQESGPGLVKPSETLSLTCTVSGGSISSYYWSWIRQPPGKGLDWIGHIYYSGTTYYNPSLKSRVSISLDTSKNQFSLKLSSVTAADTAVYYCARHLRGYSSGREFDYWGQGTLVTVSSGGGGSGGGGSGGGGSDIQMTQSPSSLSASVGGRVSLTCRASQSIFSYLNWYQQKPGKAPKLLIYAASNLQSGVPSRFSGSGSGTDFTLTISSLQPEDFATYSCQQSYNIPYTFGQGTKLEIK
For B4, in test [1], the “% Activation” value came out at 7.7% and the “EC50, SRE-luc activation” value is 0.21 nM.

B5: Fusion 1 (Heterodimer) (Fc fusion)
chain 1: QVQLQESGPGLVKPSETLSLTCTVSGGSISSYYWSWIRQPPGKGLDWIGHIYYSGTTYYNPSLKSRVSISLDTSKNQFSLKLSSVTAADTAVYYCARHLRGYSSGREFDYWGQGTLVTVSSGGGGSGGGGSGGGGSDIQMTQSPSSLSASVGGRVSLTCRASQSIFSYLNWYQQKPGKAPKLLIYAASNLQSGVPSRFSGSGSGTDFTLTISSLQPEDFATYSCQQSYNIPYTFGQGTKLEIKGGGGSGGGGSGGGGS[human IgG4 Fc with S228P (EU numbers) not spelt out]
chain 2: HPIPDSSPLLQFGGQVRQRYLYTDDAQQTEAHLEIREDGTVGGAADQSPESLLQLKALKPGVIQILGVKTSRFLCQRPDGALYGSLHFDPEACSFRELLLEDGYNVYQSEAHGLPLHLPGNKSPHRDPAPRGPARFLPLPGLPPAPPEPPGILAPQPPDVGSSDPLSGGGGSGGGGSGGGGSESKYGPPCPPCPAPEFLGGPSVFLFPPKPKDTLMISRTPEVTCVVVDVSQEDPEVQFNWYVDGVEVHNAKTKPREEQFNSTYRVVSVLTVLHQDWLNGKEYKCKVSNKGLPSSIEKTISKAKGQPREPQVYTLPPSQEEMTKNQVSLTCLVKGFYPSDIAVEWESNGQPENNYKTTPPVLDSDGSFFLYSRLTVDKSRWQEGNVFSCSVMHEALHNRFTQKSLSLSPGK
For the molecule B5, in test [1], the “% Activation” value was found to be 5.2% and the “EC50, SRE-luc activation” value is 1.2 nM.

B6: Fusion 2 (Homodimer) (Fc fusion)
chain: EVQLVESGGGVVRPGGSLRLSCAASGFKFDVYGMSWVRQLPGKGLEWVSGISWTGGSSGYADSVKGRFTISRDNGKKSLYLQMNSLRAEDTALYYCTREEDYWGQGTLVTVSSGGGGSGGGGSGGGGS[about 100 residues not spelt out]LTFGGGTKVEIKGGGGSGGGGSGGGGS[human IgG4 Fc with S228P (EU numbers) not spelt out]GGGGSGGGGSGGGGSLLQFGGQVRQRYLYTDDAQQTEAHLEIREDGTVGGAADQSPESLLQLKALKPGVIQILGVKTSRFLCQRPDGALYGSLHFDPEACSFRELLLEDGYNVYQSEAHGLPLHLPGNKSPHRDPAPRGPARFLPLPGLPPAPPEPPGILAPQPPDVGSSDPLSMVGPSQGRSPSYAS
As for B6, in test [1], the “% Activation” value stood at 21.4% and the “EC50, SRE-luc activation” value is more than 10 nM.

B7: Control hIgG4mutFc-hFGF21(L37-S209) (Fc fusion)
chain: [human IgG4 Fc with S228P (EU numbers) not spelt out]GGGGSGGGGSGGGGSLLQFGGQVRQRYLYTDDAQQTEAHLEIREDGTVGGAADQSPESLLQLKALKPGVIQILGVKTSRFLCQRPDGALYGSLHFDPEACSFRELLLEDGYNVYQSEAHGLPLHLPGNKSPHRDPAPRGPARFLPLPGLPPAPPEPPGILAPQPPDVGSSDPLSMVGPSQGRSPSYAS
In the case of B7, in test [2], the “% Activation” value was 22.8% and the “EC50, SRE-luc activation” value is 16 nM.

B8: Control scFv8900-hIgG4mutFc (Fc fusion)
chain: QVQLVESGGGVVQPGRSLRLSCVASGFTFSSYGMHWVRQAPGKGLEWVAVISFDGSNKYYADSVKGRFTISRDNSKNTLYLQMNSLRPADTAVYYCAKDRSNYYYFGMDVWGQGTTVTVSSGGGGSGGGGSGGGGSDIVMTQTPLSLPVTPGEPASISCRSSQSLLDSDDGNTYLDWYLQKPGQSPQLLIYTLSYRASGVPDRFSGSGSGTDFTLKISRVEAEDVGVYYCMQRIEFPLTFGGGTKVEIKGGGGSGGGGSGGGGS[human IgG4 Fc with S228P (EU numbers) not spelt out]
In the case of B8, in test [2], the “% Activation” value is 2.4% and the “EC50, SRE-luc activation” value was found to be 58 nM.
